The whole screen tested about 130,000 compounds, of which about 1,200 (0.92%) were called active. The inconclusive results got no clear call from the source; some entries with a clear call stand among them for comparison. The call rests on the fitted dose curve; in most records, active means well fitted cell-killing curve with a large enough effect; inconclusive means small, poorly fitted or top-dose-only effect; inactive means no such curve, though single readings can be large or run the other way. A potency beside an inconclusive call is a rough fit, not a confirmed value.
Assay: qHTS Screen for Compounds that Selectively Target Cancer Cells with p53 Mutations: Cytotoxicity of p53ts Cells at the Permissive Temperature; further: nearly all actives have a fitted effect of over 55% in size
Details: H1299-p53A138V at 32C, ATP luminescence viability, 24 h; series mostly up to 46.1 µM
How it was run: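 Viability by ATPlite luminescence after 24 h compound treatment (up to 46 uM) at the permissive 32C. Cells are H1299 carrying p53 A138V. Scale runs from DMSO basal to 100 uM tamoxifen as full kill; AC50 from Hill fits.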
Potency means the concentration at half of the fitted maximal effect; tags describe the fitted curve by direction and shape.

Compound	Potency
O=C1CC(c2ccccc2)CN1C(=O)c1ccccc1 (configuration not stated)	inactive
Cc1ccc(Nc2nc(N3CCOCC3)c3ccccc3n2)cc1	inactive
COC(=O)c1ccccc1NC(=O)CSc1cc(-c2ccccc2)nc(C)n1	inactive
COc1ccccc1CNS(=O)(=O)c1c(C(=O)N2CCC(C)CC2)c(C)n(C)c1C	inactive
O=C(CN1C=NS(=O)(=O)c2ccccc21)Nc1ccc(Br)cc1	inactive
O=C(CCCCCCCC(=O)NCC1CCCO1)NCC1CCCO1 (configuration not stated)	inconclusive: 20 µM [cytotoxic, partial curve, poor fit]
COc1ccccc1Nc1ncc2c(n1)CCN(CC(C)C)C2	inconclusive: 12.6 µM [cytotoxic, partial curve]
COc1ccc(OC)c(NC(=O)Nc2cccc(OCc3cc(=O)n4cc(C)ccc4n3)c2)c1	active: 6.31 µM
CC(C)Cn1nc(NS(=O)(=O)c2ccccc2)c2cc3ccccc3nc21	inconclusive: 10 µM [cytotoxic, partial curve]
O=C(Nc1ccc2nc(-c3cccnc3)[nH]c2c1)c1ccco1	inconclusive: 15.8 µM [cytotoxic, partial curve]
Cc1scc(C(=O)N/N=C/c2ccco2)c1C	inconclusive: 11.2 µM [cytotoxic, partial curve]
CC(C)c1ccc2c(c1)CC[C@H]1[C@](C)(CN)CCC[C@]21C	inconclusive: 31.6 µM [cytotoxic, single point]
O=C(CSc1nnc(-c2cccnc2)o1)Nc1ccccn1	inconclusive: 10 µM [cytotoxic, partial curve]
N#CCCn1cc(C(CC(=O)c2ccc(Br)cc2)C(=O)O)c2ccccc21 (configuration not stated)	inactive
COc1ccc(C2C(=O)N(C3CCC(C)CC3)CC(=O)N2Cc2ccc(C)cc2)cc1OC (configuration not stated)	inactive
O=C(c1ccccc1)c1ccc(N2CCOCC2)c(F)c1	inconclusive: 31.6 µM [cytotoxic, single point]
COc1cccc(OCCSc2nnc3sc4ccccc4n23)c1	inconclusive: 25.1 µM [cytotoxic, single point]
O=C(Nc1ccc2c(c1)OCO2)C1CCCN(c2nc3ccccc3s2)C1 (configuration not stated)	active: 20 µM
C=CCNC(=O)c1cc([N+](=O)[O-])cc2c(=O)[nH]c(Nc3ccc(Cl)c(Cl)c3)nc12	inactive
O=C(Nc1ccc(S(=O)(=O)Nc2ncccn2)cc1)c1cccc(Cl)c1	inconclusive: 0.0063 µM [cytotoxic, full curve, poor fit]
Cc1ccc(C(=O)Nc2cccc(C(=O)O)c2)cc1S(=O)(=O)N1CCCCC1	active: 12.6 µM
Cc1nc2ccc(NC(=O)c3cc([N+](=O)[O-])cc([N+](=O)[O-])c3Cl)cc2s1	inactive
Cc1cc(Cl)ccc1OCCCC(=O)NO	inconclusive: 20 µM [cytotoxic, single point]
O=C(Nc1ccc2c(c1)OCCO2)C1CCCN(c2ncccn2)C1 (configuration not stated)	inconclusive: 12.6 µM [cytotoxic, partial curve]

Compound	Potency
c1ccc(-c2noc(-c3cccs3)n2)nc1	active: 12.6 µM
Cc1ccccc1-c1nnc(CN2CCN(c3cc(Cl)ccc3C)CC2)o1	inactive
COc1ccc(C2CC(=O)c3cnc(NC(=O)c4cc(OC)cc(OC)c4)nc3C2)cc1 (configuration not stated)	inactive
O=S(=O)(Nc1cccc(Cl)c1)c1ccc2[nH]c3c(c2c1)CCCCCC3	inconclusive: 25.1 µM [cytotoxic, single point]
Cc1ccc2nc(/C(C#N)=C/c3cccc(Br)c3)[nH]c2c1	inconclusive: 31.6 µM [cytotoxic, single point]
CCOc1ccc2c(c1)sc(=NC(=O)C1CC1)n2C	inconclusive: 15.8 µM [cytotoxic, single point]
COc1ccc(N2CCN(C(=O)COc3ccc4ccccc4c3)CC2)cc1	inactive
COCCNC(=O)CSc1c2c(nc3cc(Cl)ccc13)CCCC2	inconclusive: 25.1 µM [cytotoxic, single point]
COc1cccc(NC(=O)c2ccn(C)n2)c1	inconclusive: 20 µM [cytotoxic, partial curve]
Oc1ccc(-c2nc3ccccn3c2Nc2ccc3c(c2)OCCO3)cc1	inconclusive: 11.2 µM [cytotoxic, partial curve]
CCOc1ccc(NC(=O)c2sc3nc4c(cc3c2N)CCCCCC4)cc1	inconclusive: 12.6 µM [cytotoxic, partial curve]
O=C(/C=C/c1ccccc1)c1cccs1	active: 31.6 µM
O=C1Cc2c([nH]c3ccc(Br)cc23)-c2ccccc2N1	inconclusive: 31.6 µM [cytotoxic, single point]
Cc1coc2c1C(=O)C(=O)c1c-2ccc2c1CCCC2(C)C	inconclusive: 12.6 µM [cytotoxic, single point]
Cc1ccc(C)c(N2CCN(C(=O)Cn3c(=O)c4cccn4c4ccc(F)cc43)CC2)c1	inactive
COc1ccccc1NC(=O)c1oc2ccc(C)cc2c1C	inconclusive: 20 µM [cytotoxic, single point]
Cc1cc2oc(=O)c(CC(=O)NCCc3ccccc3)c(C)c2c2occ(C(C)(C)C)c12	inconclusive: 20 µM [cytotoxic, partial curve, poor fit]
COc1ccc(-c2nc3nc(C)cc(C)n3n2)cc1	inconclusive: 6.31 µM [cytotoxic, partial curve]
Clc1ccc2c(c1)C(N1CCNCC1)Cc1ccccc1S2 (configuration not stated)	inconclusive: 35.5 µM [cytotoxic, single point]
O=C1c2ccccc2CC[C@H]1CNCCc1ccc(O)cc1	inconclusive: 31.6 µM [cytotoxic, single point]
Cc1ccc(C(Nc2ccccn2)c2ccc3cccnc3c2O)cc1 (configuration not stated)	inconclusive: 7.94 µM [cytotoxic, partial curve, poor fit]
CCN(CC)c1ccc(-c2nn3c(-c4n[nH]c5c4CCC5)nnc3s2)cc1	inconclusive: 15.8 µM [cytotoxic, single point]
Cc1cc(OCc2ccc(C(=O)n3cccn3)o2)ccc1Cl	inconclusive: 3.16 µM [cytotoxic, full curve, poor fit]

From PubChem BioAssay AID924 (National Center for Advancing Translational Sciences (NCATS), 2007)
